PubChem BioAssay AID686971 (National Center for Advancing Translational Sciences (NCATS), 2013)
In all, about 360,000 compounds went through this assay and about 7,500 (2.1%) were called active. Inconclusive results, whose numbers are uncertain, are shown with a selection of clear calls. Calls come from the whole dose curve; as a rule, active = well fitted cell-killing curve with a large enough effect; inconclusive = small, poorly fitted or top-dose-only effect, or effect the other way, or another doubt; inactive = no such curve, though single readings can be large or run the other way. No potency is given beside an inconclusive call; the fits are too rough.

Assay: qHTS for induction of synthetic lethality in tumor cells producing 2HG: qHTS for the HT-1080-IDH1KD cell line
Details: HT-1080 IDH1 knockdown viability, ATP luminescence, 48 h; series mostly up to 46.1 µM
In short: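 Cytotoxicity counter-line: IDH1KD HT-1080, 48 h, CellTiter-Glo. Curves classed by r2, magnitude and activity.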
Potency is the fitted concentration of half-maximal effect; tags give direction and shape of the fitted curve.

Structure (SMILES)	Potency
Cc1cc2c(c(=O)n1CCc1ccccc1)C(c1ccco1)C(C#N)=C(N)O2 (configuration not stated)	inconclusive [cytotoxic, single point]
CCCCOc1ccc(CSCCN=C(N)N)cc1	active: 25.9 µM
CCOC(=O)C1=CCN(S(=O)(=O)c2ccccc2C)C1c1cccc(Cl)c1 (configuration not stated)	inconclusive [cytotoxic, single point]
COc1ccc(C=NNC(=S)NC23CC4CC(CC(C4)C2)C3)cc1OC	inactive
COc1ccc(OC)c(NC(=O)CCNC(=O)c2ccco2)c1	inactive
COc1ccc(S(=O)(=O)Nc2ccccc2C)cc1	inconclusive [cytotoxic, single point]
O=C(Nc1ccc2ccccc2c1)C(c1ccccc1)C1CCCC1 (configuration not stated)	inconclusive [cytotoxic, partial curve]
CC(C)NC(=O)C1(C)CCN1C(=O)C(c1ccccc1)c1ccccc1 (configuration not stated)	inactive
COc1cc(NC(C)CCCN)c2ncccc2c1 (configuration not stated)	inconclusive [cytotoxic, single point]
O=C(CCc1nc(-c2ccccc2)no1)Nc1cc(C(F)(F)F)ccc1Cl	inactive
NS(=O)(=O)c1cccc(NC(=O)COC(=O)CCc2ccccc2)c1	inconclusive [rising, single point]
Cc1ccc(F)cc1NC(=O)N1CCCN(c2ccc(C(F)(F)F)cn2)CC1	inconclusive [cytotoxic, single point]
CCOc1ccccc1N1CCN(C(=O)Nc2cccc(Cl)c2)CC1	inactive
CC(NC(=O)c1ccc(F)cc1F)C1CC2CCC1C2 (configuration not stated)	inactive
CC(C)Oc1ccc(/C=N/NC(=O)c2nnn(-c3nonc3N)c2CN(C)c2ccccc2)cc1	inconclusive [cytotoxic, single point]
CCCCC1(COC(=O)CCC(=O)O)C(=O)N(c2ccccc2)N(c2ccccc2)C1=O	inactive
Cc1ccc(C(=O)N2CCCN(c3nc4cc5c(cc4cc3C#N)OCO5)CC2)cc1	active: 20.6 µM
CCc1c(C)sc(NC(=O)OC)c1C(N)=O	inactive
CCOc1ccc(OCC)c(NC(=O)CN(c2ccc(OC)cc2)S(=O)(=O)c2c(C)noc2C)c1	inactive
COc1ccc(CNCc2cccc(Oc3ccccc3)c2)cc1	inconclusive [cytotoxic, partial curve, poor fit]
COc1ccc(CN2CCN(c3ccccn3)CC2)c(OC)c1C	inconclusive [cytotoxic, single point]
COC1=C(N)C(=O)c2nc(-c3nc(C(=O)O)c(C)c(-c4ccc(OC)c(OC)c4O)c3N)ccc2C1=O	active: 0.0082 µM
